According to the supplement of paper PMC9135407:
Several values for one entry are separate records, joined by “and”; a condition that tells them apart may be missing. Equal values may be shown once. Where a name gives a salt, the structure may show the parent alone. Among all 5,800 compounds or so, about 620 (11%) showed activity.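 The calls were made as follows: active = score above a cut-off or among the top three wells of a plate; in these data no inactive exceeds 0.85.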 The entries are a selection whose mix differs from that of the whole data set.

Test system: primary human hepatic stellate cells (donor 1)
Assay: scaled lipid accumulation score (0 = DMSO-like, 1 = nortriptyline-like); higher = stronger HSC inactivation (lipid re-accumulation), active = hit call of the paper
Details: 48 h
[1] = library stock concentration: 3.33 mM
[2] = library stock concentration: 10 mM
[3] = library stock concentration: 1 mM
[4] = library stock concentration: 80 uM
[5] = library stock concentration: 400 uM
[6] = library stock concentration: 2 mM

SMILES: Cc1ncc(C[n+]2csc(CCO)c2C)c(N)n1 [Thiamine]
- scaled lipid accumulation score (library stock concentration: 5.9 mM): inactive: ≤ 0

SMILES: Cc1ncc(C[n+]2csc(CCO)c2C)c(N)n1 [Thiamine hydrochloride]
- scaled lipid accumulation score: inactive: 0.067

SMILES: CC(C)c1c(C(=O)Nc2ccccc2)c(-c2ccccc2)c(-c2ccc(F)cc2)n1CC[C@@H](O)C[C@@H](O)CC(=O)O [Atorvastatin Calcium]
- scaled lipid accumulation score [1]: inactive: 0.322
- scaled lipid accumulation score [2]: inactive: 0.32

SMILES: CC(C)c1c(C(=O)Nc2ccccc2)c(-c2ccccc2)c(-c2ccc(F)cc2)n1CC[C@@H](O)C[C@@H](O)CC(=O)O [Atorvastatin calcium salt trihydrate]
- scaled lipid accumulation score [2]: inactive: 0.743

SMILES: CC(C)c1c(C(=O)Nc2ccccc2)c(-c2ccccc2)c(-c2ccc(F)cc2)n1CC[C@@H](O)C[C@@H](O)CC(=O)O [Atorvastatin calcium]
- scaled lipid accumulation score [2]: inactive: 0.003

SMILES: CCN[C@H]1CN(CCCOC)S(=O)(=O)c2sc(S(N)(=O)=O)cc21 [Brinzolamide]
- scaled lipid accumulation score: inactive: ≤ 0
- scaled lipid accumulation score [1]: inactive: ≤ 0
- scaled lipid accumulation score [2]: inactive: ≤ -0.001

SMILES: CCCCCC(O)/C=C/C1C(O)CC(O)C1CCCCC(CC(=O)O)OC (stereo not drawn) [3-methoxy Prostaglandin F1.alpha.]
- scaled lipid accumulation score [3]: inactive: ≤ 0

SMILES: NCCc1c[nH]cn1 [Histamine dihydrochloride]
- scaled lipid accumulation score [2]: inactive: ≤ -0.07 and inactive: 0.062 and inactive: ≤ 0
- scaled lipid accumulation score (library stock concentration: 10.9 mM): inactive: ≤ -0.001

SMILES: NCCc1c[nH]cn1 [Histamine]
- scaled lipid accumulation score (library stock concentration: 45 mM): inactive: ≤ -0.008

SMILES: NCCc1c[nH]cn1 [Histamine 2HCl]
- scaled lipid accumulation score [1]: inactive: ≤ 0
- scaled lipid accumulation score [2]: inactive: ≤ -0.001

SMILES: OC(Cn1cncn1)(Cn1cncn1)c1ccc(F)cc1F [Fluconazole]
- scaled lipid accumulation score [1]: inactive: ≤ 0
- scaled lipid accumulation score [2]: inactive: 0.048 and inactive: ≤ -0.027 and inactive: ≤ 0

SMILES: CCCOc1cc(N)ccc1C(=O)OCCN(CC)CC [Propoxycaine hydrochloride]
- scaled lipid accumulation score: inactive: ≤ 0

SMILES: O=C(c1cc2cc(O)ccc2[nH]1)c1cc2cc(O)ccc2[nH]1 [Flt-3 Inhibitor II]
- scaled lipid accumulation score [1]: inactive: ≤ 0

SMILES: CC(=O)[C@@]1(O)CC[C@H]2[C@@H]3C=C(Cl)C4=CC(=O)[C@@H]5C[C@@H]5[C@]4(C)[C@H]3CC[C@@]21C [Cyproterone]
- scaled lipid accumulation score [2]: inactive: 0.093

SMILES: C[C@@H](NCCCc1cccc(C(F)(F)F)c1)c1cccc2ccccc12 [Cinacalcet HCl]
- scaled lipid accumulation score [1]: inactive: 0.207
- scaled lipid accumulation score [2]: inactive: 0.351

SMILES: CC(=O)Nc1cccc(-n2c(=O)n(C3CC3)c(=O)c3c(Nc4ccc(I)cc4F)n(C)c(=O)c(C)c32)c1
- scaled lipid accumulation score [4]: inactive: ≤ -0.009
- scaled lipid accumulation score [5]: inactive: ≤ -0.003
- scaled lipid accumulation score [6]: inactive: 0.049
- scaled lipid accumulation score [1]: inactive: ≤ 0
- scaled lipid accumulation score [2]: inactive: ≤ 0 and inactive: 0.058

SMILES: Nc1[nH]cnc2ncnc1-2 [Adenine HCl]
- scaled lipid accumulation score [1]: inactive: ≤ 0
- scaled lipid accumulation score [2]: inactive: ≤ 0

SMILES: Nc1[nH]cnc2ncnc1-2 [Adenine]
- scaled lipid accumulation score [2]: inactive: 0.02

SMILES: CO[C@@H](C(=O)N1Cc2[nH]nc(NC(=O)c3ccc(N4CCN(C)CC4)cc3)c2C1)c1ccccc1
- scaled lipid accumulation score [2]: active: 0.915

SMILES: CC[N+](C)(C)c1cccc(O)c1 [Edrophonium chloride]
- scaled lipid accumulation score: inactive: ≤ 0
- scaled lipid accumulation score (library stock concentration: 9.9 mM): inactive: ≤ 0
- scaled lipid accumulation score [2]: inactive: ≤ -0.07 and inactive: ≤ -0.027

SMILES: O=C1NC(=O)C(c2cnc3ccccn23)=C1c1cn2c3c(cc(F)cc13)CN(C(=O)N1CCCCC1)CC2
- scaled lipid accumulation score [5]: inactive: 0.836
- scaled lipid accumulation score [6]: inactive: 0.699

SMILES: CC(CN1c2ccccc2Sc2ccccc21)N(C)C.Cl (stereo not drawn) [Promethazine hydrochloride]
- scaled lipid accumulation score [2]: active: 0.888

SMILES: Cc1ccc(S(=O)(=O)c2ccc([N+](=O)[O-])o2)cc1
- scaled lipid accumulation score [1]: inactive: 0.556
- scaled lipid accumulation score [2]: inactive: 0.799

SMILES: C[C@@H](O)CN(CCN(C[C@@H](C)O)C[C@@H](C)O)C[C@@H](C)O
- scaled lipid accumulation score [2]: inactive: ≤ 0

SMILES: Cc1cn[nH]c1 [4-Methylpyrazole hydrochloride]
- scaled lipid accumulation score [2]: inactive: ≤ -0.055

SMILES: Cc1cn[nH]c1 [Fomepizole hydrochloride]
- scaled lipid accumulation score (library stock concentration: 16.9 mM): inactive: ≤ 0

SMILES: COc1ccc2c(c1)CCC1C2CCC2(C)C(NCCCCCCN3C(=O)C=CC3=O)CCC12 (stereo not drawn)
- scaled lipid accumulation score [3]: inactive: ≤ 0
- scaled lipid accumulation score [2]: inactive: 0.397

SMILES: COc1cc2c(Nc3ccc(NC(=O)c4ccccc4)cc3)ncnc2cc1OCCCN1CCOCC1
- scaled lipid accumulation score [2]: active: 1.03

SMILES: COC(=O)C1=C(C)NC(C)=C([N+](=O)[O-])C1c1ccccc1C(F)(F)F (stereo not drawn)
- scaled lipid accumulation score [2]: inactive: 0.011 and inactive: ≤ -0.006
- scaled lipid accumulation score (library stock concentration: 14 mM): inactive: ≤ -0.021

SMILES: COc1cc(C(=O)OCCCN2CCCN(CCCOC(=O)c3cc(OC)c(OC)c(OC)c3)CC2)cc(OC)c1OC [Dilazep dihydrochloride]
- scaled lipid accumulation score: inactive: 0.164

SMILES: COc1ccc(-c2ccc3c(N4CCOC[C@@H]4C)nc(N4CCOC[C@@H]4C)nc3n2)cc1CO
- scaled lipid accumulation score [4]: inactive: ≤ 0
- scaled lipid accumulation score [5]: inactive: 0.033
- scaled lipid accumulation score [6]: inactive: 0.017
- scaled lipid accumulation score [1]: inactive: ≤ 0
- scaled lipid accumulation score [2]: inactive: ≤ 0

SMILES: CC(C)C[C@H](NP(=O)(O)O[C@@H]1O[C@@H](C)[C@H](O)[C@@H](O)[C@H]1O)C(=O)N[C@@H](Cc1c[nH]c2ccccc12)C(=O)O [Phosphoramidon Disodium Salt]
- scaled lipid accumulation score [1]: inactive: ≤ -0.009
- scaled lipid accumulation score [2]: inactive: ≤ 0

SMILES: O/N=C/c1ccc(-c2ccc(O)c(F)c2)c(Cl)c1O
- scaled lipid accumulation score [2]: inactive: 0.02

SMILES: CCc1cc2c(cc1CC)CC(NC[C@H](O)c1ccc(O)c3[nH]c(=O)ccc13)C2.O=C(O)C=CC(=O)O [Indacaterol Maleate]
- scaled lipid accumulation score [2]: active: 1.15

SMILES: CC[N+](C)(CC)CCOC(=O)C(O)(c1ccccc1)C1CCCCC1 (stereo not drawn)
- scaled lipid accumulation score [2]: inactive: ≤ 0

SMILES: CN(C)CCCn1cc(C2=C(c3c[nH]c4ccccc34)C(=O)NC2=O)c2ccccc21
- scaled lipid accumulation score [2]: active: 1.04

SMILES: O=C1c2c(O)cccc2Cc2cccc(O)c21 [Anthralin]
- scaled lipid accumulation score (library stock concentration: 8.8 mM): inactive: 0.023
- scaled lipid accumulation score [2]: inactive: 0.105

SMILES: O=C(CCCN1CCC(O)(c2ccc(Cl)cc2)CC1)c1ccc(F)cc1 [Haloperidol]
- scaled lipid accumulation score [2]: active: 1.12

SMILES: OCCNCCCOc1cccc(Cl)c1Cl [2,3-DCPE (hydrochloride)]
- scaled lipid accumulation score [3]: inactive: 0.049

SMILES: CN1c2cc3c(cc2N=C(c2ccc(C(=O)O)cc2)c2ccccc21)C(C)(C)CCC3(C)C
- scaled lipid accumulation score [2]: inactive: 0.08

SMILES: COc1nccc(-c2c(-c3ccc(F)cc3)ncn2C2CCC(O)CC2)n1 (stereo not drawn)
- scaled lipid accumulation score [4]: inactive: ≤ 0
- scaled lipid accumulation score [5]: inactive: ≤ 0
- scaled lipid accumulation score [6]: inactive: ≤ 0
- scaled lipid accumulation score [1]: inactive: ≤ 0
- scaled lipid accumulation score [2]: inactive: 0.029 and inactive: ≤ -0.006

SMILES: COc1c(C)c(C(=O)c2ccc(N)c(C(=O)O)c2)n2ccccc12
- scaled lipid accumulation score [1]: inactive: 0.175
- scaled lipid accumulation score [2]: inactive: 0.268

SMILES: C#CC(N)CCC(=O)O (stereo not drawn) [gamma-Acetylinic GABA]
- scaled lipid accumulation score [2]: inactive: 0.037

SMILES: CCCCC/N=c1\ccn(Cc2ccccc2)c2ccccc12
- scaled lipid accumulation score [2]: inactive: 0.498

SMILES: CCCCCC(=O)/C=C/[C@H]1[C@H](O)CC(=O)[C@@H]1C/C=C\CCCC(=O)O [15-keto Prostaglandin E2]
- scaled lipid accumulation score [3]: inactive: ≤ 0

SMILES: C[N+]1(C)CCC(OC(=O)C(c2ccccc2)c2ccccc2)CC1 [4-DAMP methiodide]
- scaled lipid accumulation score [2]: inactive: 0.121

SMILES: C[N+]1(C)CCC(OC(=O)C(c2ccccc2)c2ccccc2)CC1
- scaled lipid accumulation score [2]: inactive: ≤ 0

SMILES: O=Cc1c2[nH]c3ccccc3c2cc2[nH]c3ccccc3c12 [6-Formylindolo [3,2-B] carbazole]
- scaled lipid accumulation score [3]: inactive: ≤ -0.02

SMILES: CC(=O)Oc1ccccc1C(=O)Nc1ncc([N+](=O)[O-])s1
- scaled lipid accumulation score [2]: inactive: 0.284

SMILES: CC(=O)Oc1ccccc1C(=O)Nc1ncc([N+](=O)[O-])s1 [Nitazoxanide]
- scaled lipid accumulation score [1]: inactive: 0.007
- scaled lipid accumulation score [2]: inactive: 0.218

SMILES: CCN(CC)CCOC(=O)C1(C2CCCCC2)CCCCC1 [Bentyl]
- scaled lipid accumulation score [2]: inactive: 0.586

SMILES: CCN(CC)CCOC(=O)C1(C2CCCCC2)CCCCC1 [Dicyclomine hydrochloride]
- scaled lipid accumulation score: inactive: 0.734
- scaled lipid accumulation score (library stock concentration: 5.8 mM): inactive: ≤ 0
- scaled lipid accumulation score [2]: inactive: 0.386 and inactive: 0.127

SMILES: O=c1cc(-c2ccccc2)oc2c(O)c(O)ccc12 [7,8-Dihydroxyflavone hydrate]
- scaled lipid accumulation score [2]: inactive: ≤ 0

SMILES: O=c1cc(-c2ccccc2)oc2c(O)c(O)ccc12 [7,8-dihydroxyflavone]
- scaled lipid accumulation score [2]: inactive: 0.129

SMILES: CCCCOCCOCCOCc1cc2c(cc1CCC)OCO2
- scaled lipid accumulation score [2]: inactive: 0.298

SMILES: CC(N/C(=N\C#N)Nc1ccncc1)C(C)(C)C (stereo not drawn) [Pinacidil]
- scaled lipid accumulation score: inactive: 0.077
- scaled lipid accumulation score [2]: inactive: ≤ 0 and inactive: ≤ -0.001
- scaled lipid accumulation score (library stock concentration: 20.4 mM): inactive: 0.096

SMILES: CC(N/C(=N\C#N)Nc1ccncc1)C(C)(C)C (stereo not drawn) [Pinacidil monohydrate]
- scaled lipid accumulation score [2]: inactive: ≤ 0

SMILES: CC1(C)OC(=O)C(OCC2CC2)=C1c1ccc(S(C)(=O)=O)cc1
- scaled lipid accumulation score [2]: inactive: ≤ 0

SMILES: CCCCCCCCCCCCCCCC(=O)OCC(O)C1OC(=O)C(O)=C1O [L-Ascorbyl 6-palmitate]
- scaled lipid accumulation score [1]: inactive: 0.009
- scaled lipid accumulation score [2]: inactive: ≤ 0

SMILES: CCCc1cc(C)[nH]c(=O)c1CNC(=O)c1cc(-c2ccc(N3CCN(C(C)C)CC3)nc2)cc2c1cnn2C(C)C
- scaled lipid accumulation score [1]: inactive: 0.09
- scaled lipid accumulation score [2]: inactive: 0.78

SMILES: COc1ccc([C@@H]2CC(=O)c3c(O)cc(O)cc3O2)cc1O [Hesperetin]
- scaled lipid accumulation score: inactive: ≤ 0
- scaled lipid accumulation score [3]: inactive: 0.036
- scaled lipid accumulation score [1]: inactive: ≤ 0
- scaled lipid accumulation score [2]: inactive: 0.079

SMILES: CN1CCCN(C(c2ccccc2)c2ccc(Cl)cc2)CC1.Cl.Cl (stereo not drawn) [Homochlorcyclizine dihydrochloride]
- scaled lipid accumulation score: active: 0.879

SMILES: Nc1c(CC(=O)O)cccc1C(=O)c1ccccc1 [Amfenac Sodium Monohydrate]
- scaled lipid accumulation score [1]: inactive: ≤ 0
- scaled lipid accumulation score [2]: inactive: 0.019
